{"source": "paper PMC12136788", "binders": {"B1": {"name": "chr16:94664741:94664742:+_ENSMUSG00000040785_ENSMUST00000117648|mus_hu|mus_mus_mus_hu_False|8_38 (ssRNA)", "RNA": "GGGAGUUCUACAGUCCGACGAUCUGGUACUGAUCUUGGUAGCUGAUAUUCAGGAGAAAGGCUGGCCAAGGGUGUAUAUAUGCUGGUGUACUGGGGCAGGCUAGGUAACACGUUUAUGUAUGCUGGCCGCUGGGUGAUGAUAUCCAACAGAGGAUUGAGCAUCA"}, "B2": {"name": "chr7:77256914:77256915:+_ENSG00000127947_ENST00000248594|hu_hu|FALSE|FALSE (ssRNA)", "RNA": "GGGAGUUCUACAGUCCGACGAUCUAUAUUAUGUCUAGCAAUGGACAUUGGCAAUACUUUCCUAGUAGAAAUGCUUUCAGUACUAGUGGCAGCAGAAACUGUGGCACUUGCUGUUGAAAUAUUAGUUUUAUUCUGGGUCACAGCCAACAGAGGAUUGAGCAUCA"}, "B3": {"name": "chr3:167437968:167437969:-_ENSG00000114209_ENST00000497056|hu_hu|motif|central (ssRNA)", "RNA": "GGGAGUUCUACAGUCCGACGAUCUUCAUCUCUUCCAUUGUCAUCCUCAUUCAAAAGCCAACUACAGUUGAAAAAGCAGUGCGGAAAUGCAGAGGAAUCUUCAUUCACUGCAAUAUUUCUUCUCUUUUUUGGUGAUAAAAGAAUCAACAGAGGAUUGAGCAUCA"}, "B4": {"name": "chr1:174973770:174973771:+_ENSG00000116161_ENST00000406752|hu_hu|FALSE|FALSE (ssRNA)", "RNA": "GGGAGUUCUACAGUCCGACGAUCGAUUUCUGUCUCAAUCUUGGAUUUUUCAGCUGUAAGGGCAUCACGUACUCUUUUCCUAGUAGCCUUUUCCAGCAACACCUUUACCUCUUCUAGAUCUUUCUGUAGCUCUUCUGAAGCCAUCAACAGAGGAUUGAGCAUCA"}, "B5": {"name": "chr2:37325018:37325019:+_ENSMUSG00000035437_ENSMUST00000112920|perfect_dup|FALSE|FALSE (ssRNA)", "RNA": "GGGAGUUCUACAGUCCGACGAUCAUUAUUUGUAGAUGGUGUCUCAUCUCCUUGCCUGGAAACCAAGACAAAAUCUUCACUAUUAAGAGUAGACACUGAGUCUGAUGAGACACUGAUUUUUCCAACAGAGGCCUUGUCAUCCAUCAACAGAGGAUUGAGCAUCA"}, "B6": {"name": "chr11:99246770:99246771:-_ENSMUSG00000019761_ENSMUST00000103131|mus_hu|FALSE|FALSE (ssRNA)", "RNA": "GGGAGUUCUACAGUCCGACGAUCAAAAGAAGAAAUACAGAAACCACAAAACACCUUGUAGACACCUUAUUUUCAAGGUCUAUUUCCAUAGACCAUCAAGACAGAAGUGUUUUCUUGGAGACUUUGUUUUCCAUGCAUCUGUAACAACAGAGGAUUGAGCAUCA"}, "B7": {"name": "chr5:138118867:138118868:+_ENSG00000044115_ENST00000302763|hu_hu|FALSE|FALSE (ssRNA)", "RNA": "GGGAGUUCUACAGUCCGACGAUCAGCCAAAACAUGGGCCUUCUUAGAACGACCUCUCUUCUUAUUAGAGGGCCCUUUACUAUUGGUGUUUACAAGGGUUGUAACCUGUGUAACAAGAGGCUCCAACAGUCUCUCAACUGCCAGCAACAGAGGAUUGAGCAUCA"}, "B8": {"name": "chr2:158593201:158593202:-_ENSG00000115170_ENST00000434821|hu_mus|motif|central (ssRNA)", "RNA": "GGGAGUUCUACAGUCCGACGAUCUGAAAUCUUUGCUUCUAAAUCAGUAAUAUAUCGGGUGGUGUUGCAUGGGUAAUGGCGGAAUAUGUUCUGCAUACGAACUGAAAAGAAAGUUACAGUCUACACACAUUUAAAAAAAAAAAUCAACAGAGGAUUGAGCAUCA"}, "B9": {"name": "chr5:86670034:86670035:+_ENSG00000145715_ENST00000456692|hu_hu|FALSE|FALSE (ssRNA)", "RNA": "GGGAGUUCUACAGUCCGACGAUCUUCUGACCAUACUGGGUUUUGCCCUUCCCUUGCAUGAGUUUUUGCUACUUGGACACUAUUCAGGUAGAUGUUACAAUAUGGAUUAGUAAAAUGUUUUACUGGGAGUUUAUGGGCUUCUUCCAACAGAGGAUUGAGCAUCA"}, "B10": {"name": "chr7:109059925:109059926:+_ENSMUSG00000030842_ENSMUST00000033131|mus_hu|FALSE|FALSE (ssRNA)", "RNA": "GGGAGUUCUACAGUCCGACGAUCGCAGGUUAGGGUACUGUAUAAGCCGCAGUGAGGCUGGGGGCCAAGGGGGUGGGGUAGAGAUGGGAUGAAGAGAGGAGAAGAGCUGUCCAAGGACCCCUCUCUUCAUGGGAUCCCAAACUGCAACAGAGGAUUGAGCAUCA"}, "B11": {"name": "chr7:141445308:141445309:+_ENSG00000106028_ENST00000265304|hu_hu|hu_hu_hu_mus_False|58_58 (ssRNA)", "RNA": "GGGAGUUCUACAGUCCGACGAUCUAUGAUUGUUGUUGCUUGCCGCCUCACAUUGUUUUUAUCCAUGUACUCGCCAUAGUCUAUUUUCCCUUCCACAAAUAUACGAGCCCCCUUUUUCACAUACUGAUAUGCCACAUCUCUGAGCAACAGAGGAUUGAGCAUCA"}, "B12": {"name": "chr5:40767622:40767623:-_ENSG00000132356_ENST00000397128|hu_mus|hu_hu_hu_mus_False|58_58 (ssRNA)", "RNA": "GGGAGUUCUACAGUCCGACGAUCAUCUUUUAUUGCGGCCCUCUUCAUGGGAUCCACCUGCAGCAUAUGUUUCAAAAGGCUAAUCACUGAAGGGUUUAAGUACUGAGGGGUAUAAAAGAUCCCAUCACAUAUCUUCUUAAAAAGCAACAGAGGAUUGAGCAUCA"}, "B13": {"name": "chr6:18258251:18258252:-_ENSG00000124795_ENST00000397239|hu_hu|FALSE|FALSE (ssRNA)", "RNA": "GGGAGUUCUACAGUCCGACGAUCCUUCUUUAAUGAGGACACAGUGCCUGGCCUGUUGUAAAGCAGUUUGUGUAGAUUUCUAAGUUCAUCGGUUUUCUUCUUACUUAGAAAAAAAUGUAUCCUCUCAAUUUCACAAAGUUUCUGCAACAGAGGAUUGAGCAUCA"}, "B14": {"name": "chr16:45382771:45382772:-_ENSMUSG00000022661_ENSMUST00000163230|mus_mus|mus_mus_mus_hu_True|98_108 (ssRNA)", "RNA": "GGGAGUUCUACAGUCCGACGAUCCUGAGUGUUAUUGUGGGCCCAAUGGACAGGGAGGGCAUGCUUCUCAAAAAAUGUGAGCUAUUGUCUAAGACUAACAAUAUUUAUCUAGCUAUAAAAAUAAGUUAAAUGAAUAAGUUAAGACAACAGAGGAUUGAGCAUCA"}, "B15": {"name": "chr14:66974463:66974464:+_ENSMUSG00000022044_ENSMUST00000074523|mus_hu|mus_mus_mus_hu_False|68_78 (ssRNA)", "RNA": "GGGAGUUCUACAGUCCGACGAUCUUGUAGGACGACUUAUUCAGGGGAUCGGCCAGGAAGCAAGAGCAGAACAGAGACACCAGCGGGAGCUCCUUCAUCUUCUCUUUGUAGGCAGCAAGGGUCAUGUUUCUGGGAUCUGGUGGCCAACAGAGGAUUGAGCAUCA"}, "B16": {"name": "chr5:65459698:65459699:+_ENSG00000153914_ENST00000334121|hu_hu|motif|central (ssRNA)", "RNA": "GGGAGUUCUACAGUCCGACGAUCCAUUACUUCUUCUAACUCCUUAGCUGCAGCCUGAGGUGUCAUCUCAGGGGGUUUUACGGUUGCAUUGUUGGAGUGAUUUAUUUUCAGUGGCCUGUCUCCAAACAUAACUCCAUUAAAAGCCAACAGAGGAUUGAGCAUCA"}, "B17": {"name": "91636688_91636808_2471_3pUTR_ENSG00000180694_ENST00000458549|human|control|control (ssRNA)", "RNA": "GGGAGUUCUACAGUCCGACGAUCUCAUAUGCCAAAUUAUAUUCUAUAGUCAUAAGUGCUAUUAAUAAAUACAUUUGAUUCAUGCUACAAGAGAAAGAAUUGAGACAAUUUCACAUUUCAGAAUUCCUGAGUCUUAUCAGAGAACAACAGAGGAUUGAGCAUCA"}, "B18": {"name": "chr11:101919151:101919152:-_ENSMUSG00000017314_ENSMUST00000017458|mus_hu|FALSE|FALSE (ssRNA)", "RNA": "GGGAGUUCUACAGUCCGACGAUCCAAAUGAGAUUCCUAGUAUAAGAAAUAUAUUCUAACAUUUGUAAUAAAUAUUCUGUUUAUUCUCCUUCCCCUUCCCUAGGAAAUGGGCACACAGUGGUUCAGGGGCCAGCUUUGGCUGACCAACAGAGGAUUGAGCAUCA"}, "B19": {"name": "chr6:114281168:114281169:-_ENSG00000196591_ENST00000368632|hu_hu|hu_hu_hu_mus_True|98_108 (ssRNA)", "RNA": "GGGAGUUCUACAGUCCGACGAUCUUCCAUUUUUCUGUAUAAGCCAUAAUUUAGCAGCAAGUUAUGAGUCAUCCGGAUUCUAUGAGGCUUCAUGGGAUGACCCUGGCCAUAAUAAUAAUUGCCAAUAUCACCAUCAUAGUAGUACAACAGAGGAUUGAGCAUCA"}, "B20": {"name": "chr16:94690093:94690094:+_ENSMUSG00000040785_ENSMUST00000117648|mus_hu|mus_mus_mus_hu_True|1_38 (ssRNA)", "RNA": "GGGAGUUCUACAGUCCGACGAUCGGGCUGGGAUGACGGACACACAGCCUCGAUUCCAGGGGGAAAAAGUCUUAGUCGAUACUAAUUAAAAAGUGUUUUUAUAAUUGGAAAAUCAGAUUACAUCUAUAAAAGAUGAAAGCACUUCAACAGAGGAUUGAGCAUCA"}, "B21": {"name": "48543538_48543658_587_CDS_ENSG00000177981_ENST00000317697|human|control|control (ssRNA)", "RNA": "GGGAGUUCUACAGUCCGACGAUCGGCAGCCCAGCUGAGCGGUGUAUCAUUGUUGUAAUCCAGGGCAUUGACAGAGGCCCCGCUCUCUAGGAGAGCCCGCACACACUCAGCAUUGUUCUUAAAGGCUGCCCAGUGAAGUGGGGUCAACAGAGGAUUGAGCAUCA"}, "B22": {"name": "chr3:176767854:176767855:-_ENSG00000177565_ENST00000430069|hu_hu|hu_hu_hu_mus_False|8_78 (ssRNA)", "RNA": "GGGAGUUCUACAGUCCGACGAUCGACAUCCUUGUUACUGGGCACGUCCUGCCCUCCUUCUCGUAUACAGUGUCUAAGCACGAGCUGCGUAGGGCCACUCGUGCUGUUCUCACUGAGGUUCCAGAUUCUUGCUGUUGAGUCUCCCAACAGAGGAUUGAGCAUCA"}}, "note": "This is one part of the list."}
{"target": "T1, UNK ZnF1-3 (human, UniProt Q9C0B0 31-174)", "T1 sequence": "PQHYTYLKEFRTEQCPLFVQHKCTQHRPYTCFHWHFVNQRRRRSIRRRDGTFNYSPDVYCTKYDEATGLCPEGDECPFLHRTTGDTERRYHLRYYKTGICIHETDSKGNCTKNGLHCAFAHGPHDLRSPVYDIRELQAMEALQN", "assay": "nsRBNS (natural sequence RNA bind-n-seq); RBNS binding buffer (assumed for nsRBNS): 25 mM Tris pH 7.5, 150 mM KCl, 3 mM MgCl2, 0.01% Triton X-100, 500 ug/ml BSA, 20 U/ml SUPERase-In, 4 C; UNK is unkempt and MSI1 is Musashi-1; names of the RNAs are library labels; protein concentration not given here; high values mean tight binding", "units": {"binding signal": "enrichment R"}}
{"binder": "B1", "binding signal": 1.37}
{"binder": "B2", "binding signal": 1.32}
{"binder": "B3", "binding signal": 0.98}
{"binder": "B4", "binding signal": 0.425}
{"binder": "B5", "binding signal": 0.692}
{"binder": "B6", "binding signal": 0.741}
{"binder": "B7", "binding signal": 0.746}
{"binder": "B8", "binding signal": 2.39}
{"binder": "B9", "binding signal": 0.67}
{"binder": "B10", "binding signal": 1.24}
{"binder": "B11", "binding signal": 0.606}
{"binder": "B12", "binding signal": 1.13}
{"binder": "B13", "binding signal": 0.612}
{"binder": "B14", "binding signal": 2.37}
{"binder": "B15", "binding signal": 2.19}
{"binder": "B16", "binding signal": 0.755}
{"binder": "B17", "binding signal": 0.956}
{"binder": "B18", "binding signal": 1.57}
{"binder": "B19", "binding signal": 1.13}
{"binder": "B20", "binding signal": 1.11}
{"binder": "B21", "binding signal": 0.546}
{"binder": "B22", "binding signal": 0.326}
